# Test results as given in PubChem BioAssay AID1159614 (National Center for Advancing Translational Sciences (NCATS), 2016).
# Hit rate of the full screen: of about 45,000 compounds, about 65 (0.1%) were called active. The call rests on the fitted dose curve; in most records, active means well fitted activation curve with a large enough effect; inconclusive means small, poorly fitted or top-dose-only effect; inactive means no such curve, though single readings can be large or run the other way. Some of the results follow.
# Target: Galactocerebrosidase (Homo sapiens) (UniProt P54803)
# Sequence of UniProt P54803 (P54803 whole entry, looked up): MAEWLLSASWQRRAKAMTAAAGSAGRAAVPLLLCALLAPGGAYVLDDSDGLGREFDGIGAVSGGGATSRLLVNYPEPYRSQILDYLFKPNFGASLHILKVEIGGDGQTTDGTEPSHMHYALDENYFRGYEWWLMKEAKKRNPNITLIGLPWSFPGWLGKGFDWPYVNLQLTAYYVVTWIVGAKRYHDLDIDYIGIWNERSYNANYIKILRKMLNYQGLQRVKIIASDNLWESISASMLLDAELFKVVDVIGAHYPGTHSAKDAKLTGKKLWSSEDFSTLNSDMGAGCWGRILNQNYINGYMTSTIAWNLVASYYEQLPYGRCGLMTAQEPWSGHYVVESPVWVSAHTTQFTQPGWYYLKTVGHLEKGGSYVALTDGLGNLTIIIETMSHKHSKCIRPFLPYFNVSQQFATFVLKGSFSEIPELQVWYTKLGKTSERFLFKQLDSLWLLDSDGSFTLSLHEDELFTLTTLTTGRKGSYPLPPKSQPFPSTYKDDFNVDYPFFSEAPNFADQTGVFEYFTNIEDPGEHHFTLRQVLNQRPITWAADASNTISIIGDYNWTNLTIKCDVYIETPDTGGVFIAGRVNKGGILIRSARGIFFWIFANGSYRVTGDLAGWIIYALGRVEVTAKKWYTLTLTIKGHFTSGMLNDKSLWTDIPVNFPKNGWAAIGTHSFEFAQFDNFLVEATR
# Assay: A Novel Cell-Based Assay to Identify Small Molecules for B -Galactocerebrosidase; further: 0% is about no effect; nearly all actives have a fitted effect of over 65% in size
# Conditions: 145M-Twi-hGALC-G270D cells (Twitcher mouse brain line with human GALC G270D), HMU-beta-Gal fluorescence, 48 h; series mostly up to 57.5 µM; activation: at the top concentration
# Source text: Lysosomal storage diseases (LSDs) are caused by genetic mutations in genes encoding proteins important for normal lysosomal function. Globoid cell leukodystrophy (GLD), mostly known as Krabbe disease, is a prototype of the neurological LSDs caused by deficiency of beta-galactocerebrosidase (GALC). In brain specimens of GLD patients, psychosine levels are substantially elevated. At elevated concentrations, psychosine becomes cytotoxic to neuronal cells, particularly to oligodendrocytes (OLG), neural cells responsible for myelin formation. Therefore, the biochemical disturbances in GLD are manifested by different degrees of brain demyelination resulting in a broad spectrum of neurological manifestations. Most of the FDA-approved therapies are based on enzyme replacement therapeutic (ERT) agents, which treat non-neurological symptoms of Gaucher disease, Fabry disease, few mucopolysaccharidoses and Pompe disease. Unfortunately, in GLD, a primarily neurological LSD, ERT agents, as large molecular weight molecules unable to cross the blood-brain barrier, which makes this an inefficacious therapeutic approach. In GLD, increasing the residual GALC activity just above the critical threshold (~10% of wild type enzymatic activity), the cytotoxic levels of psychosine will be reduced, avoiding the OLGs apoptosis and the subsequent demyelination process. This will translate in disease stabilization and amelioration of GLD patient symptoms.
# A cell-based assay in 1,536-well plate format was developed to implement a quantitative high-throughput screening (qHTS) assay using GLD-disease relevant cells to identify small molecules that produce enhancements of the residual enzymatic activity levels of mutants GALC found and prevalent in GLD patients. Compounds that are active may therefore have some therapeutic application for GLD. After the treatment of live cells for a determined period, using a fluorescent GALC specific substrate, the mutant residual GALC activity is measured. This cell-based qTHS assay was used to screen part of the MLPCN library for small molecule able to increase the mutant GALC enzymatic activity. In this assay, increased fluorescent signal corresponds to enhanced levels of mutant GALC residual enzymatic activity. Activation is the desired outcome for this assay.
# NIH Chemical Genomics Center [NCGC]
# NIH Molecular Libraries Probe Centers Network [MLPCN]
# Assay Submitter (PI): Gustavo Maegawa MD,PhD, University of Florida, Gainesville, FL
# 2)#Two cell lines were established for the assay: 145M-Twi-hGALC-G270D (brain-derived Twitcher cell line stably expressing human GALC-G270D) and 145M-Twi-hGALC-WT (same 145M-Twi stably expressing human GALC wild type). The Twitcher is the murine C57B/6 model for GLD with naturally occurring homozygous nonsense GALC mutation. The 145M-Twi cell line was established at Maegawa lab (Ribbens J et al 2014).
# a.#Media: DMEM/F12 (1:1) with 10% fetal bovine-serum (FBS) with penicillin/streptomycin (PS-1X - 100 I.U./mL of penicillin+100 ug/mL of streptomycin).
# b.#The 6-Hexadecanoylamino-4-methylumbelliferyl-b-D-galactoside (HMU-B-gal) substrate was prepared as per Wiederschain et al 1992. Using 20-mL borosilicate tubes, 2.20 mg of HMU-b-Gal was added in each tube to prepare substrate-film with a final air-nitrogen stream evaporation to remove all diluent solvents.
# c.#The HMUb-Gal substrate buffer consists of 0.2 M Na2HPO4 (sodium phosphate dibasic)/ 0.1 M Citric Acid with the pH adjusted to 5.2 using HCl. Sodium Azide at 0.02% and Sodium Taurocholate (NaTC) at 1 mg/mL were added to this substrate buffer.
# d.#The HMU-b-Gal stopping buffer consist of 0.5 M NaHCO3 (sodium bicarbonate) /0.5 M Na2CO3 (sodium carbonate). […] Triton X-100 at 0.25% was added.
# 4)#Preparation of HMU-b-Gal substrate tubes
# Adding 18.6 mL of the HMUb-Gal substrate buffer to each 20-mL tube (2.20 mg of HMU-b-Gal) will reach a concentration of 0.2 mM. Vortex well the tube until the solution is fully homogenized (clear cloudy solution). […]
row,SMILES,activation
1,Cn1c(=O)c2nc(SCC(=O)Nc3ccc(Cl)c(Cl)c3)n(C)c2n(C)c1=O,inactive: -8.13%
2,Cc1cc(C)cc(NC(=O)Cn2cc(C(=O)c3ccccc3)c(=O)c3ccc(C)nc32)c1,inactive: -11%
3,CCCCC(CC)CN=C(N)NC(N)=NCCCCCCN=C(N)NC(N)=NCC(CC)CCCC (stereo unspecified),inactive: -35.7%
4,Cc1ccc(CN(Cc2ccco2)c2cnc(S(C)(=O)=O)nc2C(=O)Nc2ccccc2Br)o1,inactive: -5.69%
5,COc1ccc(CNC(=O)Cn2nc(C)c3c(C)n(-c4ccccc4)nc3c2=O)cc1OC,inactive: 0.774%
6,Cc1cccc(-c2nc(C(N)=O)c3c(n2)n(-c2ccc4c(c2)OCO4)c(=O)n3C)c1,inactive: -3.12%
7,COc1ccc(N(C)C(=O)c2cc(S(=O)(=O)N3CCc4ccccc43)cn2C)c(OC)c1,inactive: -10.7%
8,CCc1ccc(C2CC(=O)Oc3c2c(=O)n(C)c2ccccc32)cc1 (stereo unspecified),inactive: -7.02%
9,CCCCc1ccc(NC(=O)C2(C)Cc3ccccc3C(=O)O2)cc1 (stereo unspecified),inactive: -19.5%
10,O=C(Nc1ccc(Cl)cc1)c1cc2c(-c3ccccc3)nn(-c3ccccc3)c2s1,inactive: 2.74%
11,Cc1nn(CC(=O)N2CCCCC2)c(=O)c2cc3occc3n12,inactive: -11.2%
12,CCN(CC)CCNC(=O)COc1ccc(Cl)cc1,inactive: -16.3%
13,Cc1ccc(-n2c3nc(=O)[nH]c(=O)c-3cc3c(C)nn(-c4ccccc4)c32)c(C)c1,inactive: -9.42%
14,Cc1ccc(Cl)cc1NC(=O)CCS(=O)(=O)c1ccc2c(c1)n(C)c(=O)c(=O)n2C,inactive: -9.09%
15,COC(=O)CN1C(=O)C(O)(CC(=O)c2ccc(F)cc2)c2ccccc21 (stereo unspecified),inactive: -12.4%
16,CCOC(=O)CSc1nc2ccc(NC(=O)COc3ccccc3C)cc2s1,inactive: -7.47%
17,CC(NC(=O)C1CCN(S(=O)(=O)c2ccc3nc4c(c(C(=O)O)c3c2)CCCC4)CC1)c1ccccc1 (stereo unspecified),inactive: -8.92%
18,CC(C)Cn1cc(NC(=O)NCc2ccccc2Cl)c2ccccc2c1=O,inactive: -24.1%
19,CCc1ccc(-n2c(SCc3cccc(F)c3)nc3[nH]ncc3c2=O)cc1,inactive: -3.81%
20,O=C(CSc1oc(-c2ccccc2)nc1S(=O)(=O)c1ccccc1)c1ccccc1,inactive: -12.7%
21,Cc1ccc(NC(=O)CCS(=O)(=O)c2cc(Br)cc3c2N(C(=O)C2CC2)CC3)cc1,inactive: -13.5%
22,COc1cccc(NC(=O)c2ccc3nc(Cc4ccccc4)oc3c2)c1,inactive: -37.1%
23,Cc1ccc(-n2c(-c3ccco3)nc3c(cnn3-c3ccccc3C)c2=O)cc1,inactive: 11.4%
24,COCCn1c(=N)c(C(=O)NCc2ccco2)cc2c(=O)n3cc(C)ccc3nc21,inactive: -8.99%
25,COC(=O)c1cc(NS(=O)(=O)c2cc(Br)cc3c2N(C(C)=O)CC3)cc(C(=O)OC)c1,inactive: 16.3%
26,CC(C)OC(=O)c1cc(C(=O)OC(C)C)cc([N+](=O)[O-])c1,inactive: -14.3% [at 114 µM]
